The other results are listed elsewhere or left out.
Assays:
Assay in all cases: glycan array binding signal (z-score within array); higher = stronger binding
Conditions in all cases: glycan notation: IUPAC condensed, linker removed
[1] = molecular target: Neu5Ac(a2-3)Gal(b1-3)GlcNAc(b1-6)GalNAc
Method in brief: (§1)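 Arrays were curated from the Consortium for Functional Glycomics database, 3228 in total, and kept only where the protein sequence was available. Binding is expressed as a within-array Z-score. This score was averaged across arrays of the same protein sequence at different concentrations or buffers and across linkers, and negative values can be read as non-binding.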

[2] = molecular target: Neu5Ac(a2-3)Gal(b1-3)GlcNAc6S
Method in brief: as §1

[3] = molecular target: Neu5Ac(a2-3)Gal(b1-3)[Fuc(a1-4)]GlcNAc
Method in brief: as §1

[4] = molecular target: Neu5Ac(a2-3)Gal(b1-3)[Fuc(a1-4)]GlcNAc(b1-3)Gal(b1-3)[Fuc(a1-4)]GlcNAc
Method in brief: as §1

[5] = molecular target: Neu5Ac(a2-3)Gal(b1-3)[Fuc(a1-4)]GlcNAc(b1-3)Gal(b1-4)[Fuc(a1-3)]GlcNAc
Method in brief: as §1

[6] = molecular target: Neu5Ac(a2-3)Gal(b1-3)[GlcNAc(b1-6)]GalNAc
Method in brief: as §1

[7] = molecular target: Neu5Ac(a2-3)Gal(b1-3)[Neu5Ac(a2-6)]GalNAc
Method in brief: as §1

[8] = molecular target: Neu5Ac(a2-3)Gal(b1-3)[Neu5Ac(a2-6)]GlcNAc(b1-3)[Fuc(a1-3)[Gal(b1-4)]GlcNAc(b1-6)]Gal(b1-4)Glc
Method in brief: as §1

[9] = molecular target: Neu5Ac(a2-3)Gal(b1-3)]Neu5Ac(a2-3)Gal(b1-4)]GlcNAc
Method in brief: as §1

Neu5Ac(a2-3)Gal(b1-4)Glc = molecular target: Neu5Ac(a2-3)Gal(b1-4)Glc
Method in brief: as §1

[10] = molecular target: Neu5Ac(a2-3)Gal(b1-4)GlcNAc
Method in brief: as §1

[11] = molecular target: Neu5Ac(a2-3)Gal(b1-4)GlcNAc(b1-2)Man
Method in brief: as §1

[12] = molecular target: Neu5Ac(a2-3)Gal(b1-4)GlcNAc(b1-2)Man(a1-3)[GlcNAc(b1-4)][Neu5Ac(a2-3)Gal(b1-4)GlcNAc(b1-2)Man(a1-6)]Man(b1-4)GlcNAc(b1-4)GlcNAc
Method in brief: as §1

[13] = molecular target: Neu5Ac(a2-3)Gal(b1-4)GlcNAc(b1-2)Man(a1-3)[Neu5Ac(a2-3)Gal(b1-4)GlcNAc(b1-2)Man(a1-6)]Man(b1-4)GlcNAc(b1-4)GlcNAc
Method in brief: as §1

[14] = molecular target: Neu5Ac(a2-3)Gal(b1-4)GlcNAc(b1-2)Man(a1-3)[Neu5Ac(a2-3)Gal(b1-4)GlcNAc(b1-2)Man(a1-6)]Man(b1-4)GlcNAc(b1-4)[Fuc(a1-6)]GlcNAc
Method in brief: as §1

[15] = molecular target: Neu5Ac(a2-3)Gal(b1-4)GlcNAc(b1-2)Man(a1-3)[Neu5Ac(a2-6)Gal(b1-4)GlcNAc(b1-2)Man(a1-6)]Man(b1-4)GlcNAc(b1-4)GlcNAc
Method in brief: as §1

[16] = molecular target: Neu5Ac(a2-3)Gal(b1-4)GlcNAc(b1-2)[Neu5Ac(a2-3)Gal(b1-4)GlcNAc(b1-4)]Man(a1-3)[GlcNAc(b1-4)][Neu5Ac(a2-3)Gal(b1-4)GlcNAc(b1-2)[Neu5Ac(a2-3)Gal(b1-4)GlcNAc(b1-6)]Man(a1-6)]Man(b1-4)GlcNAc(b1-4)GlcNAc
Method in brief: as §1

[17] = molecular target: Neu5Ac(a2-3)Gal(b1-4)GlcNAc(b1-2)[Neu5Ac(a2-3)Gal(b1-4)GlcNAc(b1-4)]Man(a1-3)[GlcNAc(b1-4)][Neu5Ac(a2-3)Gal(b1-4)GlcNAc(b1-4)Man(a1-6)]Man(b1-4)GlcNAc(b1-4)GlcNAc
Method in brief: as §1

[18] = molecular target: Neu5Ac(a2-3)Gal(b1-4)GlcNAc(b1-2)[Neu5Ac(a2-3)Gal(b1-4)GlcNAc(b1-6)]Man(a1-6)[Neu5Ac(a2-3)Gal(b1-4)GlcNAc(b1-2)Man(a1-3)][GlcNAc(b1-4)]Man(b1-4)GlcNAc(b1-4)GlcNAc
Method in brief: as §1

[19] = molecular target: Neu5Ac(a2-3)Gal(b1-4)GlcNAc(b1-3)Gal
Method in brief: as §1

[20] = molecular target: Neu5Ac(a2-3)Gal(b1-4)GlcNAc(b1-3)Gal(b1-3)GlcNAc
Method in brief: as §1

[21] = molecular target: Neu5Ac(a2-3)Gal(b1-4)GlcNAc(b1-3)Gal(b1-4)GlcNAc
Method in brief: as §1

[22] = molecular target: Neu5Ac(a2-3)Gal(b1-4)GlcNAc(b1-3)Gal(b1-4)GlcNAc(b1-2)Man(a1-3)[Neu5Ac(a2-3)Gal(b1-4)GlcNAc(b1-3)Gal(b1-4)GlcNAc(b1-2)Man(a1-6)]Man(b1-4)GlcNAc(b1-4)GlcNAc
Method in brief: as §1

[23] = molecular target: Neu5Ac(a2-3)Gal(b1-4)GlcNAc(b1-3)Gal(b1-4)GlcNAc(b1-3)Gal(b1-4)GlcNAc
Method in brief: as §1

[24] = molecular target: Neu5Ac(a2-3)Gal(b1-4)GlcNAc(b1-3)Gal(b1-4)GlcNAc(b1-3)Gal(b1-4)GlcNAc(b1-2)Man(a1-3)[Neu5Ac(a2-3)Gal(b1-4)GlcNAc(b1-3)Gal(b1-4)GlcNAc(b1-3)Gal(b1-4)GlcNAc(b1-2)Man(a1-6)]GalNAc
Method in brief: as §1

[25] = molecular target: Neu5Ac(a2-3)Gal(b1-4)GlcNAc(b1-3)Gal(b1-4)GlcNAc(b1-3)GalNAc
Method in brief: as §1

[26] = molecular target: Neu5Ac(a2-3)Gal(b1-4)GlcNAc(b1-3)Gal(b1-4)GlcNAc(b1-3)[Neu5Ac(a2-3)Gal(b1-4)GlcNAc(b1-3)Gal(b1-4)GlcNAc(b1-6)]GalNAc
Method in brief: as §1

[27] = molecular target: Neu5Ac(a2-3)Gal(b1-4)GlcNAc(b1-3)Gal(b1-4)GlcNAc(b1-6)[Gal(b1-3)]GalNAc
Method in brief: as §1

[28] = molecular target: Neu5Ac(a2-3)Gal(b1-4)GlcNAc(b1-3)Gal(b1-4)[Fuc(a1-3)]GlcNAc
Method in brief: as §1

[29] = molecular target: Neu5Ac(a2-3)Gal(b1-4)GlcNAc(b1-3)GalNAc
Method in brief: as §1

B1: a L Fucosidase (Streptosporangium roseum), D2B1P1_STRRD (protein)
chain: MRRKLLLVPAVGLLVIGSIFATQPVASADTPPVYEPTVESLNSHPVPQWFNDDKFGIFIHWGAYSVPAWGPRGSYAEWYGNYMNAGGSATNAHHKATYGQDFNYDAFLQQWKAEKFDPADWVKLFKDAGAKYFVLTSKHHEGMALWDSKSSGRDSVDLGPGRDLAKELFDAARKDEAKLKAGFYYSLYEWYNPAYTGRPATNPYTGAEIPYTGAPGGGDYVKDYMLPQMRELIDGYDPDIIWCDGQWEKPASYWNTAGVIADYYNKALNSGKEVAVANRCKIQSGNLDSPELDFQTPEYTVKPDIDPVKWESSRGIAHSYGYNQNEPEEDHLTSDQLVDSLVDIVSKNGNLLLDIGPKADGTIPEIQRQRLLDIGAWLKANGEAIYGTTYWNRAEEKGGPDDVRYTAKDATLYATALKWPGEQLTLGADLPVDHSTRITMLGSGARLSWSRDEQGRVVVNTPQEAGKHAYVFKIETPGVRSLLRTSSSLAKEIAPGRTISGELTVTNPGKRHTPATKLSLTVPQGWTATLGAPRVRPLGPGESVKVPISVSAPEGVAPAPYTLGLYQRTGRMGTTTALPLTVNRPNLSLGKPATQKSTGYDAPASRAVDGNTGGDWSAGSTTHTAEPEKQAWWQVDLGASARLDSVDVWNRLDCCADRLKDFWVMASDQPFTTDDLDQARTAPGVTAVHVGEQAGSPSKVKLPEGTRGRYVRIQLASPSNPLSLAEVQVRGSMARPNLSLGKPATQKSTGYDAPASRAVDGNTGGDWSAGSTTHTAEPEKQAWWQVDLGASARLDSVDVWNRLDCCADRLKDFWVMASDQPFTTDDLDQARTAPGVTAVHVGEQAGSPSKVKLPEGTRGRYVRIQLASPSNPLSLAEVQVRLEHHHHHHS
glycan array binding signal (z-score) [1]: -0.493 | glycan array binding signal (z-score) [2]: -0.365 | glycan array binding signal (z-score) [3]: -0.014 | glycan array binding signal (z-score) [4]: -0.033 | glycan array binding signal (z-score) [5]: -0.118 | glycan array binding signal (z-score) [6]: 0.619 | glycan array binding signal (z-score) [7]: -0.108 | glycan array binding signal (z-score) [8]: -0.531 | glycan array binding signal (z-score) [9]: -0.363 | glycan array binding signal (z-score) (Neu5Ac(a2-3)Gal(b1-4)Glc): -0.388 | glycan array binding signal (z-score) [10]: -0.407 | glycan array binding signal (z-score) [11]: 1.75 | glycan array binding signal (z-score) [12]: -0.463 | glycan array binding signal (z-score) [13]: -0.59 | glycan array binding signal (z-score) [14]: -0.425 | glycan array binding signal (z-score) [15]: -0.249 | glycan array binding signal (z-score) [16]: -0.534 | glycan array binding signal (z-score) [17]: -0.283 | glycan array binding signal (z-score) [18]: -0.488 | glycan array binding signal (z-score) [19]: -0.52 | glycan array binding signal (z-score) [20]: -0.34 | glycan array binding signal (z-score) [21]: -0.428 | glycan array binding signal (z-score) [22]: 0.456 | glycan array binding signal (z-score) [23]: 0.296 | glycan array binding signal (z-score) [24]: 0.804 | glycan array binding signal (z-score) [25]: 0.074 | glycan array binding signal (z-score) [26]: 0.022 | glycan array binding signal (z-score) [27]: -0.194 | glycan array binding signal (z-score) [28]: -0.411 | glycan array binding signal (z-score) [29]: -0.02

Reference: the supplement of paper PMC8728848
